Experiment [1] deals with mouse IGF-1R on mouse myoblasts (C2C12) (mouse, UniProt Q60751 31-1373). In words: cell-based or functional assay.
The target in experiment [2] is human IGF-1R on human non-small cell lung cancer cells (A549) (human, UniProt P08069 31-1367). The experiment is described as follows: cell-based or functional assay.
The target of experiment [3] is T1, hIGF-1R-ECD-avi-his (human IGF-1R extracellular region) (human, UniProt P08069 31-935).
T1 construct: It was captured on the chip through its His tag
In words: SPR (Biacore T200), antigen captured by anti-His antibody on CM5 chip, antibody as analyte.

For experiment [4], the target named is T2, mouse IGF-1R (Acro, Cat. IGR-M5223) (mouse, UniProt Q60751 31-936, limits assumed).
T2 construct: Bought reagent; also called murine IGF-1R
The description is as above.

Experiment [5] deals with T3, hTSHR-ECD-avi-his (human TSHR extracellular region, 6 amino acid mutations) (human).
T3 chain: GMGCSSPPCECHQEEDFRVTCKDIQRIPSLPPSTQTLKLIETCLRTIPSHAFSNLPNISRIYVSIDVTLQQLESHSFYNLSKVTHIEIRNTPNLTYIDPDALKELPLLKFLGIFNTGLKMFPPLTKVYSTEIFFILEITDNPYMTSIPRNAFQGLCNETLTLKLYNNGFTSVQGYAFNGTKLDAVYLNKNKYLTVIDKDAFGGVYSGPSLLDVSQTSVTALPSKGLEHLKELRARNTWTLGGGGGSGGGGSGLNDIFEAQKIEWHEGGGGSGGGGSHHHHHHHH
The experiment is described as follows: SPR (Biacore T200), antibody captured on Protein A chip, human TSHR as analyte. In general terms: In SPR one partner is held on a chip, and binding of the other changes the refractive index at the surface.

For experiment [6], the target named is T4, full-length rat TSHR on transiently transfected HEK293 cells (rat, UniProt P21463 22-764).
T4 sequence (looked up): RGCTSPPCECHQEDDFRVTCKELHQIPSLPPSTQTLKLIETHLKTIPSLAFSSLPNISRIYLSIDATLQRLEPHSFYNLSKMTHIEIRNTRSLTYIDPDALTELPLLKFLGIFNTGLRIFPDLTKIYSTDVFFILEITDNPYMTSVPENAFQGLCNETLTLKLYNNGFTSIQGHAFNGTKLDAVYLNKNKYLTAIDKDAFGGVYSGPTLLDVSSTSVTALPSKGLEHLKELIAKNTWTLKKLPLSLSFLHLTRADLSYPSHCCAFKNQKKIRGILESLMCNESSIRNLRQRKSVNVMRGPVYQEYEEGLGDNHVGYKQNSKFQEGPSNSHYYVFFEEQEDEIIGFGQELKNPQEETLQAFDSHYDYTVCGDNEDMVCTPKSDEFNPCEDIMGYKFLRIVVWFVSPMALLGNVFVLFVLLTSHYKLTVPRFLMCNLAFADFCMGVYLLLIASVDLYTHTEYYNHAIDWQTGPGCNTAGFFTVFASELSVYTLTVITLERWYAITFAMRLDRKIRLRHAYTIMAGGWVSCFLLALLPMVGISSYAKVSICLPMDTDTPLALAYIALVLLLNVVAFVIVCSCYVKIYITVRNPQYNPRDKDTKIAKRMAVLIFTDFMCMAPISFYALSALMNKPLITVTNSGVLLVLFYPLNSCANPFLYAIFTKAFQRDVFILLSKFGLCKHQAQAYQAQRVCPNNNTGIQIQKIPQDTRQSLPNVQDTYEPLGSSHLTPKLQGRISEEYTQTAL
In words: cell-based or functional assay.

Experiment [7] concerns the target full-length mouse TSHR on transiently transfected HEK293 cells (mouse, UniProt P47750 22-764). In words: cell-based or functional assay.

Broadly, the Kd is the concentration at which binding is half-saturated. A high value points to weaker binding. Usually koff stands for the first-order rate constant of dissociation. High values mean a short-lived complex, low ones a long-lived complex. As usually defined, the kon is a measure of how fast the partners come together. Low values mean slow association, high ones fast association.

T1 sequence (P08069 31-1367): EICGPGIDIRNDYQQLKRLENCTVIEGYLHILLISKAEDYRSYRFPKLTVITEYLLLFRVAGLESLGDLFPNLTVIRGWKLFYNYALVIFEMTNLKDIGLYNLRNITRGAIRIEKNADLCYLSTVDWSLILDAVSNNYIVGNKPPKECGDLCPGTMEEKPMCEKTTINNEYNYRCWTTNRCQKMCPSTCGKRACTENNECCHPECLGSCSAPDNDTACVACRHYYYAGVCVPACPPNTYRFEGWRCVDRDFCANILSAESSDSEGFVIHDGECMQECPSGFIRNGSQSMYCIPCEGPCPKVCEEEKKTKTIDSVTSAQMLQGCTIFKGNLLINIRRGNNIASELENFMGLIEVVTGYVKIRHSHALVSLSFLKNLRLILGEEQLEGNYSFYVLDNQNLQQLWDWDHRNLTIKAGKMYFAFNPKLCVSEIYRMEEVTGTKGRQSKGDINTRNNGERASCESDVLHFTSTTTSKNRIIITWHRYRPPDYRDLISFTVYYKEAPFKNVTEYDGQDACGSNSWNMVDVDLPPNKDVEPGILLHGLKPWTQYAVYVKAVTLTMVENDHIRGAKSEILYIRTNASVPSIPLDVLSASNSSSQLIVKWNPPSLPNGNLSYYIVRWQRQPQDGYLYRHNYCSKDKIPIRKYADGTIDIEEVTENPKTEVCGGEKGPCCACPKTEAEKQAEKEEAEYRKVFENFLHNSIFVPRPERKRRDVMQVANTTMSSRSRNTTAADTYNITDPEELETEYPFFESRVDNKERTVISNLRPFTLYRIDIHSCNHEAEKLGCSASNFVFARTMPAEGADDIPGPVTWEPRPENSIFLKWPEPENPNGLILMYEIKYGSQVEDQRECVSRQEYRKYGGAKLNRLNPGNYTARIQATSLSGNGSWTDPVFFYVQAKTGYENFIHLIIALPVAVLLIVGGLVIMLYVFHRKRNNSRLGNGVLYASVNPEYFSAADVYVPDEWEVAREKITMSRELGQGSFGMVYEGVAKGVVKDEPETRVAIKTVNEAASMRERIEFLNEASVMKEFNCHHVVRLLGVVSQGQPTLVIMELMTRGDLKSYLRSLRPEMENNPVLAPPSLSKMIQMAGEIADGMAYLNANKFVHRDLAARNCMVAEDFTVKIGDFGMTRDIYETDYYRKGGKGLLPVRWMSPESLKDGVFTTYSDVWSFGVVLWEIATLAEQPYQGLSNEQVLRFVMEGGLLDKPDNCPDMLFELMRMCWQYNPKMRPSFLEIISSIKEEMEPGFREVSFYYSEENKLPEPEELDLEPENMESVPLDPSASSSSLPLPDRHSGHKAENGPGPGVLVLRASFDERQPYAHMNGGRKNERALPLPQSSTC
Chain of UniProt P47750 (P47750 22-764): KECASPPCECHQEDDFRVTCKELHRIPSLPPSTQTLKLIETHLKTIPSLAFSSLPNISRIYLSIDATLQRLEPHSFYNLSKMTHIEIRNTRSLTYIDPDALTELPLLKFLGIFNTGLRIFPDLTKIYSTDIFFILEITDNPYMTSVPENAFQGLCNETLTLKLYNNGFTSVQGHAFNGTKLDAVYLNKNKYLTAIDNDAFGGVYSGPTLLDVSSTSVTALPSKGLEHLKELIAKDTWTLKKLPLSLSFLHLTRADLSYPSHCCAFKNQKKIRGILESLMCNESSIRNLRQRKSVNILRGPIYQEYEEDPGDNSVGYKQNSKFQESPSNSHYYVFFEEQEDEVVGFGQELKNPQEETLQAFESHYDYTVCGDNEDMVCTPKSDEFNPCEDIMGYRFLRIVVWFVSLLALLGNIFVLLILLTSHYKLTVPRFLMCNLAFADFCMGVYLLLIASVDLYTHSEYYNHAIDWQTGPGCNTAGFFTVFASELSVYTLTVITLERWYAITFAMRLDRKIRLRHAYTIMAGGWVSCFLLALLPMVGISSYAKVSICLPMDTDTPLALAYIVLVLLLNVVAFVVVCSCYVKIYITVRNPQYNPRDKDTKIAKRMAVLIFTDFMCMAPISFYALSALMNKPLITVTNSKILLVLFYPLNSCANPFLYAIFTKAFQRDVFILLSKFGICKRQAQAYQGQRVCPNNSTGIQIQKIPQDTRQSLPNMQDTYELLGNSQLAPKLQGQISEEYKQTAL

B1: IG06-IgG1 (Fc fusion)
chain: QVQLVESGGGSVQAGGSLRLSCAASRYIVSTRCLGWVRQAPGNEREEIATIDTAGRPTYADSVKGRFTISKDGAKNFLYLQMNSLKPEDTAMYYCAAASSDNCRYFPSNLGQGTQVTVSS[in this place human IgG1 Fc with changes]
notes: VHH fused directly to human IgG1 Fc
On to B1, for which the “IC50 (nM), inhibition of IGF1-induced pAKT signaling in C2C12 cells” value in experiment [1] worked out at 62.2 nM. Also, the “IC50 (nM), inhibition of IGF1-induced pAKT signaling in A549 cells” value in experiment [2] was 0.898 nM. In experiment [3], binding was characterised by a dissociation constant (Kd) of 0.0306 nM, the koff was determined as 0.000155 s⁻¹ and the association rate constant (kon) turned out to be 5.07e+06 M⁻¹ s⁻¹. In experiment [4], this molecule yielded a Kd of 0.0943 nM, an off-rate constant (koff) of 0.000496 s⁻¹ and a kon of 5.27e+06 M⁻¹ s⁻¹.

B2: CB16-hu2-IgG1 (Fc fusion)
chain: EVQLLESGGGLVQPGGSLRLSCAGPGYTSSCMGWFRQAPGKERTGVAAIYIGGRGTDYADSVKGRFTISQDNAKNTLYLQMNSLRAEDTAVYYCWAGIEYDCYSGHWRDWAFSRERGFWGQGTLVTVSS[in this place human IgG1 Fc with changes]
notes: as for B1
Consider B2, for which, in experiment [5], binding was put at a Kd of 5.54 nM, the koff was found to be 0.000988 s⁻¹ and the on-rate constant (kon) was determined as 178000 M⁻¹ s⁻¹.

B3: CB16-IgG1 (Fc fusion)
chain: EVQLVESGGGPVQAGGSLRLSCAGPGYTSSCMGWFRQAPGKERTGVAAIYIGGRGTDYADSVKGRFTISQDNAKNTLYLQMNSLKPEDTAMYYCWAGIEYDCYSGHWRDWAFSRERGFWGQGTQVTVSS[in this place human IgG1 Fc with changes]
notes: as for B1
In experiment [5], B3 yielded a dissociation constant (Kd) of 5.67 nM, a dissociation rate constant (koff) of 0.00107 s⁻¹ and a kon of 188000 M⁻¹ s⁻¹.

B4: CB16-hu3-IgG1 (Fc fusion)
chain: EVQLLESGGGLVQPGGSLRLSCAGPGYTSSCMGWFRQAPGKERTGVSAIYIGGRGTDYADSVKGRFTISQDNSKNTLYLQMNSLRAEDTAVYYCWAGIEYDCYSGHWRDWAFSRERGFWGQGTLVTVSS[in this place human IgG1 Fc with changes]
notes: as for B1
In experiment [5], B4 yielded a Kd of 8.14 nM, a koff of 0.00136 s⁻¹ and a kon of 167000 M⁻¹ s⁻¹. In addition, the “IC50, inhibition of bovine TSH-stimulated cAMP production in HEK293-rat TSHR cells” value in experiment [6] is 3.66 nM. Besides, the “IC50, inhibition of bovine TSH-stimulated cAMP production in HEK293-mouse TSHR cells” value in experiment [7] is 5.94 nM.

B5: CB16-hu1-IgG1 (Fc fusion)
chain: EVQLLESGGGLVQPGGSLRLSCAGPGYTSSCMGWFRQAPGKEREGVSAIYIGGRGTDYADSVKGRFTISQDNSKNTLYLQMNSLRAEDTAVYYCWAGIEYDCYSGHWRDWAFSRERGFWGQGTLVTVSS[in this place human IgG1 Fc with changes]
notes: as for B1
In experiment [5], B5 showed a Kd of 46 nM, an off-rate constant (koff) of 0.00657 s⁻¹ and a kon of 143000 M⁻¹ s⁻¹.

B6: IG05-hu5-1-IgG1 (Fc fusion)
chain: EVQLVESGGGLVQPGGSLRLSCAASGFTFGTFGMAWFRQAPGKEREGVSAISASSGRTYYADSVKGRFTISRDNSKNTLYLQMNSLRAEDTAVYYCAVRSKQGAGYGFWYEGRLYGYWGQGTLVTVSS[in this place human IgG1 Fc with changes]
notes: as for B1
B6: the “IC50 (nM), inhibition of IGF1-induced pAKT signaling in A549 cells” value in experiment [2] turned out to be 0.194 nM. In experiment [3], this molecule had a Kd of 0.00211 nM, a koff of 1.87e-05 s⁻¹ and an on-rate (kon) of 8.87e+06 M⁻¹ s⁻¹.

These data come from patent EP4775595A1 (Beijing Tuo Jie Biopharmaceutical Co. Ltd., dated 2026).
